The list shows a part of the results.

Consider 44 sequences from the supplement of paper PMC11417369.

The assay concerns PfHDP1 homeodomain (GST-tagged). In words: gcPBM binding intensity (ln(normalized median fluorescence intensity)); higher = stronger DNA binding. The essentials: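 Probes on an Agilent 4 × 180k array were primer-extended, double-stranded and 36 bp long, taken from intergenic genomic regions, with negative controls added. GST-tagged P. falciparum DNA-binding domains from E. coli, about 25 μg on average, were applied to the array for 1 h in 1× PBS containing 1% milk, 0.2 mg/ml BSA, 0.5% salmon testes DNA and 0.03% Triton X-100. Binding intensity, obtained after Alexa488 anti-GST antibody detection and a 488 nm scan, is the highest Masliner-normalised natural-log median intensity across replicate spots of either probe orientation.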
Take “TAATAATAATACCAGCGTACATTTTTCTTTCCTACG [XGTACX_site4056]”: the “gcPBM binding intensity (ln)” value was 6.41.

As for “TATTTTTTCTTAAACACACACATATATATATATAAT [CACACA_site5567]”, the “gcPBM binding intensity (ln)” value came to 6.89.

For “TCTGTGTTTTTGGGTACACACAAATAGCTTGTATAT [CACACA_site4002]”, the “gcPBM binding intensity (ln)” value worked out at 6.77. The same measure for “TGAAAATTAATAAAAAGTACATAGTCAGATTTGTGA [XGTACX_site2450]”: 6.31. Regarding “TTCCTTAATCAATATTGTACTTTTTATAAATTTAGT [XGTACX_site3678]”, the “gcPBM binding intensity (ln)” value was found to be 6.86. Consider “TATATGTGACATGAATGTACCCAAATTATATAAGAA [XGTACX_site3937]”, for which the “gcPBM binding intensity (ln)” value was determined as 6.4. The same measure for “ATTTAATATATTTATTGTACATATAAAATAAAAGAA [XGTACX_site2413]”: 6.63; for “TATTCTTACACGTTTGCACACTAAAATATATATATA [CACACA_site435]”: 9.97; for “CATAGGAACATAAGTTGTACGCTATACATACAACAT [XGTACX_site1054]”: 6.22. The same measure for “TCTCCTTGTTCCTTTTTTTTAAAAAAAAACATTAAA [CACACA_negctrl_site679]”: 7.2; for “ATAAATCCATGGGTAGTGCGCATTTTTTTTTTTTTT [GTGCAC_site9732]”: 6.82; for “TTAGTGTATTAATTCTCACACACTAAGAAAAAAAAA [CACACA_site3878]”: 6.31.

With ATAAAATGTATATGAATGCACTTGAAGTTTTTTTTT, the “gcPBM binding intensity (ln)” value amounted to 7.25. With “TATATATATTTATACACACACATATATTTATATATT [CACACA_site484]”, the “gcPBM binding intensity (ln)” value came out at 6.95. Next, “ATTCACTGGTATGCATGAAAAAAAATATTATTATAA [CACACA_negctrl_site702]”: 6.49; “ATTTTGATAACCGTACGTACATATATATATATATAT [XGTACX_site6605]”: 9.19. Turning to “TGAATACTTATGTTCGCACACATGCAAATTAAAAAA [CACACA_site4048]”, the “gcPBM binding intensity (ln)” value is 7.27. The same measure for “TTATGTGTATACTAAGAACACACAAGTTACTTGGTG [CACACA_site8467]”: 6.36. As for “ACATGGTGATAATACTGTACAAAAATAAATAAATAC [XGTACX_site897]”, the “gcPBM binding intensity (ln)” value came to 7. The same measure for “TTGTTTGGTTATAATTGTACGCATGTAATTACATAT [XGTACX_site4972]”: 7.09.

Consider “TTATTTTTCTAAAAAGCATGCAAATAAAGATATGAA [TGCATGCA_site1032]”, for which the “gcPBM binding intensity (ln)” value turned out to be 6.92. Next, “ACATTCAATAAACGTCGTACACTTTCCTTTTTATGA [XGTACX_site3274]”: 6.84; “AAAAAAACGATCGATCGTACTTATATTTACACATTC [XGTACX_site2883]”: 6.37. Next, “ATATATATTTTATTATGTACTTACTTCTTTTCTTAA [XGTACX_site6163]”: 6.53; “TTTTATAGTCTTATGGGTACAAAATATTAACCCACG [XGTACX_site1131]”: 6.1.

For the sequence “CTAAACAAAAAATAATGTACACATACATAAAAAATA [XGTACX_site1808]”, the “gcPBM binding intensity (ln)” value was 6.12.

In the case of “AACACATACAAACACACACACAAAAAAAAAAAAAAA [CACACA_site393]”, the “gcPBM binding intensity (ln)” value is 6.92.

As to “ATTATATATGTATGGTGTACTAAGAATATTTTTTTA [XGTACX_site1950]”, the “gcPBM binding intensity (ln)” value was found to be 6.36. The same measure for “CCCGAACAAACAAATAAACACACAAAAAAAAATATA [CACACA_site8540]”: 6.78. Take “TATTGAAAAAATAAAAGTACAAACTCTTATAATATG [XGTACX_site8196]”: the “gcPBM binding intensity (ln)” value was determined as 6.05. “ATTCAATATAAATACACACACACTTTTAATAATTAA [CACACA_site5963]”: the “gcPBM binding intensity (ln)” value was 6.88. Next, “AAAAGAATGAAACATAATAAATTACATTAAAATAAT [CACACA_negctrl_site897]”: 6.26. Next, “TAATTATCACATTGCACACACATTTCCTTTTACATT [CACACA_site3443]”: 9.61; “GGCATACACAGACACACACACACACCCACATATATA [CACACA_site591]”: 7.38; “AATAAATAAATAAGTACACACATATATATATATATA [CACACA_site284]”: 9.32. Next, “ATTTTTTTATTTTGTGCACACACATAAAAATATATA [CACACA_site762]”: 11.4; “TCTATTTTTCTAATTTGTACATAGCTTTGAGTTAGT [XGTACX_site8977]”: 6.79. Consider “AACTTATTAAGCCCTCCACATTTCTCTACTACAACT [CACACA_negctrl_site1552]”, for which the “gcPBM binding intensity (ln)” value amounted to 6.52. Next, “AACTTCTTTTTTATAACACACAAAATATATATACAA [CACACA_site282]”: 6.85; “AGATAAAATATATACACACACATAAATACGTACAAA [CACACA_site1086]”: 7.07; “TACATTTTTATTTTTACACACATATTTATTTATATA [CACACA_site6609]”: 7.06. For “TATGATGATGAATAACGTACAAAAAAATTAATCACC [XGTACX_site6794]”, the “gcPBM binding intensity (ln)” value is 6.87.

Take “ATTCATTTTAATATGGGTACATAAAAATAAAAAGAA [XGTACX_site2801]”: the “gcPBM binding intensity (ln)” value turned out to be 6.68. Regarding “AATATTTAATTCAACACACATACATATTTATTAAAA [CACACA_site2342]”, the “gcPBM binding intensity (ln)” value is 6.5.
